Reference: the supplement of paper PMC8183993
Structures can show the parent of a compound that is named as a salt. ± gives the standard deviation of the averaged measurements. In all, about 3,100 compounds were measured (“mean cytoplasmic OPP incorporation (global translation) relative to DMSO”: median about 100, lowest 2% from about 56 on). This is one part of the list.

Test system: U2OS
Test: mean cytoplasmic OPP incorporation (global translation) relative to DMSO (% of DMSO); higher = more protein synthesis
Conditions: 10 µM; 24 h
Procedure: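 Primary image-based screen in U2OS cells: compounds at 10 uM for 24 h, then a 1 h o-propargyl-puromycin (OPP) pulse, click labelling, and high-throughput microscopy. Mean cytoplasmic OPP intensity and nuclei count were normalised to DMSO wells within each plate (DMSO = 100) and averaged over triplicate plates.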

Point of comparison: `NC(=O)c1ncn([C@@H]2O[C@H](CO)[C@@H](O)[C@H]2O)n1` [Ribavirin (Copegus)], “mean cytoplasmic OPP incorporation” value 98.1. Against it:
- CN1[C@@H](CC(=O)c2ccccc2)CCC[C@H]1C[C@H](O)c1ccccc1 [Lobeline hydrochloride] — lower, 95.3
- CCC(CC)CC1(C(=O)Nc2ccccc2SC(=O)C(C)C)CCCCC1 [Dalcetrapib (JTT-705)] — higher, 103
- CNC(=O)[C@H]1O[C@@H](n2cnc3c(NCc4cccc(I)c4)ncnc32)[C@H](O)[C@@H]1O — higher, 102
- C=C[C@H]1CN2CC[C@H]1C[C@@H]2[C@@H](O)c1ccnc2ccc(OC)cc12 [Quinidine hydrochloride monohydrate] — higher, 108
- C[C@]12CC[C@H]3C(=CCc4cc(O)ccc43)[C@@H]1CCC2=O [Equilin] — higher, 102
- CCN(C(=O)CO)[C@H]1CN(/C(=N\C#N)Nc2cccc(OC(F)F)c2)N=C1c1ccc(Cl)c(Cl)c1 — higher, 107
- CN1C(C(=O)Nc2ccccn2)=C(O)c2sccc2S1(=O)=O [Tenoxicam] — higher, 104
- Cc1ncc([N+](=O)[O-])n1CC(O)CCl (stereo not given) [Ornidazole] — lower, 83.3
- NC(=O)N1c2ccccc2CC(O)c2ccccc21 (stereo not given) [Licarbazepine] — higher, 106
- Cc1cccc(C)c1NC(=O)C1CCCCN1C (stereo not given) [Mepivacaine hydrochloride] — lower, 96.1
- CCc1nc(-c2cccc(C)c2)c(-c2ccnc(NC(=O)c3ccccc3)c2)s1 — higher, 110.3 ± 0.3
- O=C(CCCCCCC(=O)NO)NO [Suberoyl bis-hydroxamic acid] — lower, 88.4
- CN(C)CCC=C1c2ccccc2CCc2ccccc21 [Amitryptiline hydrochloride] — higher, 102
- Cc1ccnc2c1NC(=O)c1cccnc1N2C1CC1 [Nevirapine (Viramune)] — higher, 107
- Cc1[nH]c(=O)c(C#N)cc1-c1ccncc1 [Milrinone] — lower, 94.4
- CC(C)[C@H](CO)Nc1nc(Nc2cccc(Cl)c2)c2ncn(C(C)C)c2n1 [Purvalanol A] — higher, 99.2
- Cn1c(=O)c2[nH]cnc2n(C)c1=O [Aminophylline] — higher, 109
- CS(=O)(=O)c1ccc(C2=C(c3ccccc3)C(=O)OC2)cc1 [Rofecoxib] — lower, 94.3
- COc1cc2c(cc1OC)CN(CCc1ccc(NC(=O)c3cc(OC)c(OC)cc3NC(=O)c3cnc4ccccc4c3)cc1)CC2 [Tariquidar] — higher, 115
- FC(F)(F)c1cc(COC2CCCNC2c2ccccc2)cc(C(F)(F)F)c1 [L-733,060 hydrochloride] — higher, 108
- CN(C(=O)c1ccc(F)cc1C(F)(F)F)C1CCN(c2nnc(-c3ccnn3C)c3ccccc23)CC1 — higher, 109
- COc1cc(Cc2cnc(N)nc2N)cc(OC)c1OC [Trimethoprim] — higher, 98.3
- CN1CCC(c2c(O)cc(O)c3c(=O)cc(-c4ccccc4Cl)oc23)C(O)C1 (stereo not given) [Flavopiridol (Alvocidib) HCl] — lower, 58.4
- CCN(CC)CCOC(=O)C(c1ccccc1)C1CCCCC1 (stereo not given) [Drofenine hydrochloride] — higher, 101
- COc1ccc([C@H]2CNC(=O)C2)cc1OC1CCCC1 [(S)-(+)-Rolipram] — lower, 95.8
- COc1ccc([C@H]2CNC(=O)C2)cc1OC1CCCC1 [S- (+)-Rolipram] — higher, 111
- COc1cc2c(cc1OC)C(=O)C(CC1CCN(Cc3ccccc3)CC1)C2 (stereo not given) [Donepezil HCl (Aricept)] — higher, 108
- CCCCC(CC)CN1CN(CC(CC)CCCC)CC(C)(N)C1 (stereo not given) [Hexetidine] — higher, 100
- C=CC(=O)c1ccc2ccccc2c1 — higher, 100
- NS(=O)(=O)c1cccc2c1c([N+](=O)[O-])cc1nc(O)c(O)nc12 — higher, 106
- NS(=O)(=O)c1cccc2c1c([N+](=O)[O-])cc1nc(O)c(O)nc12 [NBQX disodium salt] — higher, 105
- N#CC(=C(/N)Sc1ccccc1N)/C(C#N)=C(/N)Sc1ccccc1N — lower, 93.9
- CO[C@@]1(NC(=O)Cc2cccs2)C(=O)N2C(C(=O)O)=C(COC(N)=O)CS[C@@H]21 [Cefoxitin sodium salt] — lower, 96.2
- CC(=O)c1ccc2c(c1)N(CCCN1CCC(CCO)CC1)c1ccccc1S2 [Piperacetazine] — higher, 101
- COc1ccccc1-c1cc(Nc2cccc(CS(N)(=O)=O)c2)ncn1 — lower, 94.4
- CC1(COc2ccc3c(c2)ncn3-c2ccc3cccc(N4CCC(N)CC4)c3n2)COC1 — lower, 59.3
- CNCC[C@H](Oc1cccc2ccccc12)c1cccs1 [Duloxetine HCl (Cymbalta)] — higher, 105
- O=C(CCCN1CCC(O)(c2ccc(Br)cc2)CC1)c1ccc(F)cc1 [Bromperidol] — lower, 93.5
- C[C@@H](Oc1cc(-n2cnc3ccc(CN4CCN(C)CC4)cc32)sc1C(N)=O)c1ccccc1C(F)(F)F — higher, 121
- N=C(N)NC(=O)c1nc(Cl)c(N)nc1N [Amiloride hydrochloride] — lower, 96.8
- N=C(N)NC(=O)c1nc(Cl)c(N)nc1N [Amiloride hydrochloride dihydrate] — higher, 101
- O=[N+]([O-])c1cccc2c(Br)[nH]nc12 [3-Bromo-7-nitroindazole] — lower, 91.4
- CC(Cc1ccccc1)(NC(=O)CN)c1ccccc1 (stereo not given) [Remacemide hydrochloride] — higher, 120
- CC(C)(C)C(=O)OCOC(=O)[C@@H]1N2C(=O)[C@@H](NC(=O)[C@H](N)c3ccccc3)[C@H]2SC1(C)C [Pivampicillin] — higher, 99.8
- CC1(C)Oc2ccc(C#N)cc2[C@H](N2CCCC2=O)[C@H]1O [Cromakalim] — the same, 98.1
- CCCCOc1c(C(=O)c2c(F)cc(C)cc2F)c[nH]c2nncc1-2 — within error, 98 ± 3
- CCC(=O)N1CCOc2c(cc(-c3ccc(OC)c(OC)c3)cc2OC[C@H]2CCCN(C)C2)C1 — higher, 112
- O=C1NCN(c2ccccc2)C12CCN(CCCC(c1ccc(F)cc1)c1ccc(F)cc1)CC2 [Fluspirilen] — higher, 103
- O=C1NCN(c2ccccc2)C12CCN(CCCC(c1ccc(F)cc1)c1ccc(F)cc1)CC2 [Fluspirilene] — higher, 112 ± 2.6
- Nc1ccccc1NC(=O)c1ccc(CNC(=O)OCc2cccnc2)cc1 [Entinostat (MS-275, SNDX-275)] — lower, 23.5
- COc1cccc(OC)c1OCCNCC1COc2ccccc2O1 (stereo not given) [WB 4101 hydrochloride] — higher, 108
- CN(C)CC[C@H](CSc1ccccc1)Nc1ccc(S(=O)(=O)NC(=O)c2ccc(N3CCN(Cc4ccccc4-c4ccc(Cl)cc4)CC3)cc2)cc1[N+](=O)[O-] — higher, 114
- C[C@H]1COC2=C1C(=O)C(=O)c1c2ccc2c1CCCC2(C)C [Cryptotanshinone] — higher, 99.6
- NC(=O)Cc1cccc(C(=O)c2ccccc2)c1N [Nepafenac] — higher, 99.2
- CCCCC1=NC2(CCCC2)C(=O)N1Cc1ccc(-c2ccccc2-c2nnn[nH]2)cc1 [Irbesartan (Avapro)] — higher, 102
- CC1(C)OC2=C(C(=O)c3ccccc3C2=O)[C@H](NCc2ccccc2)[C@@H]1O — lower, 38.9
- O=[N+]([O-])c1ccc2c(c1)S(=O)(=O)C=C2 [Stattic] — lower, 48.5
- N[C@@H]1CCCCN(c2c(F)cc3c(=O)c(C(=O)O)cn(C4CC4)c3c2Cl)C1 [Besifloxacin HCl (Besivance)] — higher, 108
- CC[C@H]1OC(=O)[C@H](C)[C@@H](O[C@H]2C[C@@](C)(OC)[C@@H](O)[C@H](C)O2)[C@H](C)[C@@H](O[C@@H]2O[C@H](C)C[C@H](N(C)C)[C@H]2O)[C@](C)(OC)C[C@@H](C)C(=O)[C@H](C)[C@@H](O)[C@]1(C)O [Clarithromycin (Biaxin, Klacid)] — higher, 109
- CCOc1ccccc1OCC1CNCCO1 (stereo not given) [Viloxazine hydrochloride] — lower, 87.8
- CCCCOC(=O)c1ccc(N)cc1 [Butamben] — lower, 93
- Cc1ccc(S(=O)(=O)n2c(N)nc3ccccc32)cc1 — higher, 102
- CNC(=O)c1ccc(-c2cnc3ncc(Cc4ccc5ncccc5c4)n3n2)cc1F — higher, 107
- CC(C)COCC(CN(Cc1ccccc1)c1ccccc1)N1CCCC1 (stereo not given) [Bepridil] — higher, 105
- CC(C)COCC(CN(Cc1ccccc1)c1ccccc1)N1CCCC1 (stereo not given) [Bepridil hydrochloride] — higher, 113
- NC(=O)c1ncn([C@@H]2O[C@H](CO)[C@@H](O)[C@H]2O)n1 [Ribavirin] — higher, 106
- CCC(CC)(CC(=O)Nc1cccc(/C=C/c2nc(C3CCC3)cs2)c1)C(=O)O [Cinalukast] — lower, 96.3
- CCOC(=O)[C@H](CCc1ccccc1)N[C@@H](C)C(=O)N1[C@H](C(=O)O)C[C@@H]2CCC[C@@H]21 [Ramipril] — higher, 105
- CCOC(=O)[C@H](CCc1ccccc1)N[C@@H](C)C(=O)N1[C@H](C(=O)O)C[C@@H]2CCC[C@@H]21 [Ramipril (Altace)] — higher, 108
- CCOc1ccc2c(c1)C(C)=CC(C)(C)N2 [Ethoxyquin] — higher, 107 ± 6.1
- CNC(=O)[C@@H](Cc1ccccc1)N(C)C(=O)[C@@H](Cc1ccc2ccccc2c1)N(C)C(=O)/C=C/CC(C)(C)N [Tabimorelin] — higher, 99.8
- NS(=O)(=O)c1cc2c(cc1Cl)N=CNS2(=O)=O [Chlorothiazide] — higher, 99.5
- CN[C@H](CC(C)C)C(=O)N[C@H]1C(=O)N[C@@H](CC(N)=O)C(=O)N[C@H]2C(=O)N[C@H]3C(=O)N[C@H](C(=O)N[C@H](C(=O)O)c4cc(O)cc(O)c4-c4cc3ccc4O)[C@H](O)c3ccc(c(Cl)c3)Oc3cc2cc(c3O[C@@H]2O[C@H](CO)[C@@H](O)[C@H](O)[C@H]2O[C@H]2C[C@](C)(N)[C@H](O)[C@H](C)O2)Oc2ccc(cc2Cl)[C@H]1O [Vancomycin HCl (Vancocin)] — higher, 101
- CN[C@H](CC(C)C)C(=O)N[C@H]1C(=O)N[C@@H](CC(N)=O)C(=O)N[C@H]2C(=O)N[C@H]3C(=O)N[C@H](C(=O)N[C@H](C(=O)O)c4cc(O)cc(O)c4-c4cc3ccc4O)[C@H](O)c3ccc(c(Cl)c3)Oc3cc2cc(c3O[C@@H]2O[C@H](CO)[C@@H](O)[C@H](O)[C@H]2O[C@H]2C[C@](C)(N)[C@H](O)[C@H](C)O2)Oc2ccc(cc2Cl)[C@H]1O [Vancomycin hydrochloride] — higher, 99.3
